Results taken from patent publication US20150051171A1, “TETRAZOLINONE COMPOUNDS AND ITS USE AS PESTICIDES” (SUMITOMO CHEMICAL COMPANY, LIMITED, priority 2012, published 2015).
Where two headings read alike, the source gives them in different places.

How the values were obtained:
Type in all cases: in vivo
[1] = test system: tomato late blight fungi (Phytophthora infestans); conditions: tomato (cv; Patio), inoculated after drying
[2] = test system: barley net blotch fungi (Pyrenophora teres); assay: Barley net blotch control on barley, foliar spray before inoculation (Test Examples 8-10, Comparative Test Example); conditions: 50 ppm foliar spray, barley (cv; Mikamo Golden), inoculated 2 days after spraying
[3] = test system: powdery mildew fungi (Sphaerotheca fuliginea); assay: Cucumber powdery mildew control, foliar spray before inoculation (Test Examples 17-19); conditions: 50 ppm foliar spray, cucumber (cv; Sagamihanjiro), observed 8 days after inoculation
[4] = test system: wheat rust fungi (Puccinia recondita); assay: Wheat rust control on wheat, foliar spray after inoculation (Test Example 7); conditions: 200 ppm foliar spray 1 day after inoculation, wheat (cv; Shirogane), observed after 8 days
Description: Thereafter, to the wheat were sprinkling-inoculated the spores of wheat rust fungi (Puccinia recondita). The wheat was placed under a dark and humid condition at 23° C. for 1 day and was air-dried.

[5] = test system: wheat leaf blotch fungi (Septoria tritici); assay: Wheat leaf blotch control on wheat, foliar spray before inoculation (Test Examples 13-15); conditions: 50 ppm foliar spray, wheat (cv; Apogee), inoculated 4 days after spraying

COc1cccc(-n2nnn(C)c2=O)c1COc1ccn(-c2ccc(Cl)cc2)n1 [Present compound 26, 1-(2-{[1-(4-chlorophenyl)-1H-pyrazole-3-yl]oxymethyl}-3-methoxyphenyl)-4-methyl-1,4-dihydrotetrazole-5-one]
lesion area compared to the lesion area in untreated plants ([1]; 200 ppm foliar spray (flowable)): ≤ 30%

Cn1nnn(-c2ccccc2COc2ccn(-c3ccc(F)cc3)n2)c1=O [control compound, 1-(2-{[1-(4-fluorophenyl)-1H-pyrazole-3-yl]oxymethyl}phenyl)-4-methyl-1,4-dihydrotetrazole-5-one, reference compound]
lesion area compared to the lesion area in untreated plants [2]: ≥ 70%

Cn1nnn(-c2cccc(C3CC3)c2COc2ccn(-c3ccc(Cl)cc3)n2)c1=O [Present compound 34, 1-(2-{[1-(4-chlorophenyl)-1H-pyrazole-3-yl]oxymethyl}-3-cyclopropylphenyl)-4-methyl-1,4-dihydrotetrazole-5-one]
lesion area compared to the lesion area in untreated plants [3]: ≤ 30%

Cc1cccc(-n2nnn(C)c2=O)c1COc1ccn(-c2ccc(Cl)cc2)n1 [Present compound 12, 1-(2-{[1-(4-chlorophenyl)-1H-pyrazole-3-yl]oxymethyl}-3-methylphenyl)-4-methyl-1,4-dihydrotetrazole-5-one]
lesion area compared to the lesion area in untreated plants ([1]; 50 ppm foliar spray (flowable)): ≤ 30%
lesion area compared to the lesion area in untreated plants [4]: ≤ 30%

CSc1ccc(-n2ccc(OCc3c(C)cccc3-n3nnn(C)c3=O)n2)cc1 [Present compound 19, 1-(2-{[1-(4-methylthiophenyl)-1H-pyrazole-3-yl]oxymethyl}-3-methylphenyl)-4-methyl-1,4-dihydrotetrazole-5-one]
lesion area compared to the lesion area in untreated plants [5]: ≤ 30%

C/C=C/c1cccc(-n2nnn(C)c2=O)c1COc1ccn(-c2ccc(Cl)cc2)n1 [Present compound 35, 1-(2-{[1-(4-chlorophenyl)-1H-pyrazole-3-yl]oxymethyl}-3-(1-propenyl)phenyl)-4-methyl-1,4-dihydrotetrazole-5-one]
lesion area compared to the lesion area in untreated plants [2]: ≤ 30%
